Article PMC6919601, “Identification of Plasmodium dipeptidyl aminopeptidase allosteric inhibitors by high throughput screening” (PLoS ONE, 2019)
Hit rate of the full screen: of about 110,000 compounds, about 230 (0.21%) showed an effect of 50% or more. The list shows a part of the results.

Target: DPAP1 (Plasmodium falciparum, UniProt Q8IIJ9)
Experiment: primary screen, percent inhibition; read by cleavage of a fluorogenic dipeptide substrate; higher = more effect of the substance
Parameters: species or system P. falciparum D10 trophozoite lysates; single well
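Also: 30 min substrate incubation versus DMSO and 10 µM JCP410 controls.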

DPAP1, sequence (Q8IIJ9 whole entry, looked up): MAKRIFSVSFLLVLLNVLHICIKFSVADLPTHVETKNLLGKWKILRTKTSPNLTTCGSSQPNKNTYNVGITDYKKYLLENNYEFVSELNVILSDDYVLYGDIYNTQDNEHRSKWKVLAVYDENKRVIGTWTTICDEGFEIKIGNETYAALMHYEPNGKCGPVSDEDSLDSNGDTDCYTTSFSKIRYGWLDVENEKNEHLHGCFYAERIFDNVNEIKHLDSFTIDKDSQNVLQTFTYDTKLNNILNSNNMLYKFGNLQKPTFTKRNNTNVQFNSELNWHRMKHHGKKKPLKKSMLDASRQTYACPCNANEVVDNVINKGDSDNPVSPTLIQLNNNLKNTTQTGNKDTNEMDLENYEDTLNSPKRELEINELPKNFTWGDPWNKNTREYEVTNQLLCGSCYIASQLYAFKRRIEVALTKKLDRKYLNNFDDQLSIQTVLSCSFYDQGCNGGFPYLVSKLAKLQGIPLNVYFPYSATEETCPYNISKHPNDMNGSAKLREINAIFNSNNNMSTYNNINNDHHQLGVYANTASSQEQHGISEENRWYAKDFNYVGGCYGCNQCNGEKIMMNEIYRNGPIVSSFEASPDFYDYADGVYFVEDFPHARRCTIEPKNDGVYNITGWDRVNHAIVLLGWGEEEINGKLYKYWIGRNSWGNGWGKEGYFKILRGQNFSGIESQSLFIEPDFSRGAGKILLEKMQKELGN

| Compound | % Inhibition @ 10 uM |
| --- | --- |
| COc1cc(C2CC(c3c(O)cc(C)oc3=O)=NCCS2)cc(OC)c1OC (stereo not shown) | -3.62% |
| CN(C)CCN(Cc1ccccc1)Cc1coc2ccc(Cl)cc2c1=O | -4.75% |
| CSc1ccc(NC(=O)c2sc3nc4c(cc3c2N)CCC4)cc1 | -2.77% |
| CCOC(=O)N1CCC(NC(=O)c2cc3c(s2)-c2c(C)cccc2OC3)CC1 | -4.85% |
| O=C(CCN1C(=O)c2ccccc2C1=O)Nc1ccccc1O | -4.06% |
| CCC(C)NC(=O)c1ccc2c(c1)sc1nc(-c3ccc(F)cc3)cn12 (stereo not shown) | 1.09% |
| COc1ccc(OC)c(C2C(C#N)=C(N)Oc3c2c(O)nc2ccccc32)c1 (stereo not shown) | -2.21% |
| COc1ccc(C(=O)Nc2ccccc2C(=O)NC(C(=O)Nc2ccccc2)C(C)C)cc1 (stereo not shown) | 10.5% |
| O=C(CCN1C(=O)c2ccccc2C1=O)NC1CCCCC1 | 1.34% |
| COc1cc2cc(=O)n(Cc3ccccc3)c(C)c2cc1OC | 1.43% |
| Cc1cccc(NC(=O)C2CC(=O)N(c3ccc(C(C)(C)C)cc3)C2)c1C (stereo not shown) | 1.83% |
| CCOc1ccc(C(=O)C2=C(O)C(=O)N(CCN(CC)CC)C2c2ccc(F)cc2)c(C)c1 (stereo not shown) | 3.15% |
| CC(NC(=O)c1cccc2c1C(=O)N(Cc1cccnc1)C2)C12CC3CC(CC(C3)C1)C2 (stereo not shown) | -0.499% |
| CC(=O)Nc1cccc(NC(=O)Nc2cccc(Cl)c2)c1 | -0.192% |
| Cc1nc(SCC(=O)Nc2ccccc2)nc2c1CCCC2 | -1.61% |
| NC(=O)c1cc(S(=O)(=O)NCCCc2ccccc2)cs1 | 6.1% |
| COc1ccc(CCNC(=O)c2cc3n(n2)C(C(F)(F)F)CC(c2ccco2)N3)cc1 (stereo not shown) | -0.958% |
| COc1ccc(C/C(O)=C(\C#N)c2nc3ccccc3[nH]2)cc1OC | -3.78% |
| CCC1CCCCN1Cc1ccc(CNC(=O)Cn2ncc3c4ccccc4nc-3c2O)o1 (stereo not shown) | 5.27% |
| CS(=O)(=O)c1ccc(C(=O)N[C@@H](Cc2cc(I)c(O)c(I)c2)C(=O)NCC#N)cc1 | 4.63% |
| CC(C)(C)NC(=O)C1CCN(S(=O)(=O)c2cccc3nsnc23)CC1 | 3.53% |
| Cc1ccc(C)n1-c1nnc(N2CCC(C(=O)NCCCN3CCN(C)CC3)CC2)s1 | 2.76% |
| O=c1/c(=C/c2ccc(-c3ccc(-n4cnnn4)cc3)o2)sc2nc3ccccc3n12 | 9.77% |
| O=C(NC1CCCCCCC1)C1CCCN(c2nc3ccccc3o2)C1 (stereo not shown) | -3.12% |
| FC(F)(F)Oc1ccc(-n2nnnc2SCc2ccccn2)cc1 | -5.96% |

| Compound | % Inhibition @ 10 uM |
| --- | --- |
| C=CCn1c(SC)nc(O)cc1=O | -1.22% |
| Cc1oc(-c2ccc(Cl)cc2)nc1CN1CCCC(C(=O)NCc2cccnc2)C1 (stereo not shown) | -1.05% |
| CN(C(=O)Cc1coc2ccc3ccccc3c12)c1ccccc1 | -1.44% |
| COc1cccc(CNC(=O)CN2C(=O)c3ccccc3Sc3ncccc32)c1 | -12.5% |
| Cc1nc2nc(C)c(N)c(O)n2n1 | -2.19% |
| CCN(CC)CCCn1c(C)cc2c(c1=O)C(c1ccc(OC)c(OC)c1OC)C(C#N)=C(N)O2 (stereo not shown) | 2.31% |
| COc1ccccc1/C=C/C1=NC(=C\C(Cl)=C\c2ccccc2)/C(=O)O1 | -2.6% |
| CCOc1ccc(C2c3c(oc4ccc(F)cc4c3=O)C(=O)N2CCCN2CCOCC2)cc1OC (stereo not shown) | -4.78% |
| Cc1ccc(-c2c(NCc3ccccn3)c(=O)c2=O)cc1 | 1.69% |
| CCOC(=O)C1=CN(Cc2ccc(Cl)cc2)C=C(C(=O)OCC)C1c1ccccc1OCC | 3.45% |
| COc1ccc(CN2CCN(Cc3ccc(C(F)(F)F)cc3)CC2)cc1 | -8.46% |
| Cc1ccsc1CN1CCOCC1 | -3.57% |
| COc1cccc(C2=NN(C)c3nc4c(c(=O)n(C)c(=O)n4C)n3C2)c1 | -3.04% |
| C=CCOc1ccccc1/C=c1\sc2nc(=O)c(Cc3ccc(C)cc3)nn2c1=O | 4.51% |
| CCCOc1ccc(Br)cc1/C=C(/C#N)c1nc2ccccc2[nH]1 | -2.21% |
| CCOC(=O)c1c(N2CCN(c3ccccc3)CC2)cc(C)nc1C | -0.807% |
| CCN(CC)CCCNC(=O)C1CCCN(c2ncnc3onc(C)c23)C1 (stereo not shown) | 2.69% |
| CCOc1ccc(N2CC(C(=O)Nc3ccc4c(c3)OCO4)CC2=O)cc1 (stereo not shown) | -0.872% |
| CCOc1ccccc1C(=O)Nc1cccc(Br)c1 | 1.01% |
| O=C(CN(Cc1ccc(Cl)c(Cl)c1)S(=O)(=O)c1ccccc1)Nc1ccc2c(c1)OCO2 | -1.17% |
| CCc1ccc(N2C(=O)CSC2c2ccc(Cl)cc2Cl)cc1 (stereo not shown) | -1.75% |
| COc1cccc2c1OC1(C)CC2C(S(=O)(=O)c2ccc(Cl)cc2)C(=O)N1 (stereo not shown) | 4.14% |
| CN(CCNC(=O)c1cc(O)nc2ccc(S(=O)(=O)N3CCCCCC3)cc12)Cc1ccccc1 | 0.387% |
| COc1cccc(-c2nnc3n(CCc4ccccc4)c(=O)c4ccccc4n23)c1 | 0.00665% |
| CCCn1c(CCCNC(=O)Cc2ccccc2)nc2ccccc21 | -8.16% |

| Compound | % Inhibition @ 10 uM |
| --- | --- |
| COC(=O)c1ccc(/N=C2/S/C(=C\c3cc(Cl)c(O)c(OC)c3)C(=O)N2C)cc1 | 3.29% |
| Cc1nnc(N2C(=O)c3oc4ccccc4c(=O)c3C2c2cccc(Cl)c2)s1 (stereo not shown) | 2.16% |
| O=C(Nc1nnc(C2CCCCC2)s1)c1ccc2ccccc2c1 | -1.93% |
| O=C(NC1CCN(Cc2ccccc2)CC1)c1cc2c(=O)oc3ccccc3c2s1 | 1.08% |
| COCCN1C(=O)c2ccccc2C(C(=O)NCCN2CCOCC2)C1c1ccc(F)cc1 (stereo not shown) | 1.26% |
| Cc1cc(=O)oc2c3c(ccc12)O/C(=C/C=C/c1ccccc1)C3=O | -0.812% |
| CC(C)CC(=O)Nc1ccc(C(=O)c2ccccc2)cc1 | 2.5% |
| Nc1c(C(=O)Nc2cccc(C(F)(F)F)c2)sc2nc3c(cc12)C(=O)CCC3 | 2.43% |
| CCS(=O)(=O)N1CCC(C(=O)NCc2ccc(F)cc2Cl)CC1 | -6.75% |
| CCN(CC)CCN(C)CC1CC=CCC1 (stereo not shown) | 1.62% |
| Cc1ccccc1NC(=O)C1CC=CCC1C(=O)N(c1ccccc1)c1ccccc1 (stereo not shown) | 6.03% |
| CC(=O)N/C(=C\c1ccc(F)cc1)C(=O)N(C)C | -3.26% |
| CSc1nnc(-c2ccc(Cl)cc2Cl)o1 | -2.18% |
| O=C(NCCc1ccc(Cl)cc1)C1CCN(c2nn3cc(-c4ccc(F)cc4)nc3s2)CC1 | 2.62% |
| CCCc1[nH]nc2c1C(c1cccc3ccccc13)C(C#N)=C(N)O2 (stereo not shown) | 5.24% |
| COc1ccc(C2N3CC(C)(C)CN23)cc1 (stereo not shown) | -3.5% |
| CN(C)c1ccnc2sc3c(O)ncnc3c12 | 3.18% |
| Cn1c2ccccc2c2cnn(CC(=O)N3CCC(Cc4ccccc4)CC3)c(=O)c21 | -0.23% |
| Cc1cc(-c2ccco2)n(CC(=O)NCCN(C)C)n1 | 1.63% |
| CC(C)(C)/N=c1\c(N)c(O)oc2ccccc12 | -0.25% |
| COc1ccccc1NC(=O)/C=C\C(=O)O | 1.63% |
| CCOc1ccc(C2C(C#N)=C(N)N(c3ccccc3)C3=C2C(=O)CCC3)cc1 (stereo not shown) | -1.64% |
| CCOc1ccc(C(=O)Nc2ccc(S(=O)(=O)NC(C)(C)C)cc2)cc1 | 13.5% |
| O=C1CC(c2cccc(Cl)c2Cl)C2=C(CC(c3ccc(F)cc3)CC2=O)N1 (stereo not shown) | 6.91% |
| Clc1ccc(-c2onc3ccc(Cl)cc23)cc1 | -2.2% |

| Compound | % Inhibition @ 10 uM |
| --- | --- |
| COc1ccc(S(=O)(=O)N(CC(=O)Nc2ccc3c(c2)OCO3)c2ccc(F)cc2)cc1OC | -1.61% |
| Cc1[nH]nc2c1C(c1cccc(OCc3ccc(Cl)cc3)c1)C(C#N)=C(N)O2 (stereo not shown) | -0.68% |
| COc1ccc(C2C(C#N)=C(N)Oc3c2c(C)nn3-c2cccc(Cl)c2)cc1OC (stereo not shown) | 0.343% |
| CC1=C(C(=O)Nc2ccccc2)SCCO1 | -3.94% |
| O=C(NCc1cccnc1)c1cc(-c2ccccc2)nc2ccccc12 | -1.89% |
| CCOc1ccc(C(=O)Nc2cc(Cl)ccc2C)cc1 | -6.02% |
| O=C(NC1(C(F)(F)F)C(=O)Nc2c1c(=O)[nH]c(=O)n2-c1ccc(F)cc1)c1cccnc1 (stereo not shown) | -7.18% |
| C=CCNC(=S)Nc1[nH]nc2nc(C)cc(C)c12 | 2.18% |
| COc1ccc(CCNC(=O)c2ccc(CNc3nc(S)nc4ccccc34)cc2)cc1OC | 5.43% |
| CCN(CC)C(=O)c1ccc(S(=O)(=O)c2ccc(Cl)c(Cl)c2)cc1 | 4.55% |
| COc1cccc(C2C3=C(O)c4ccccc4C3=Nc3c2c(=O)n(C)c(=O)n3C)c1OC (stereo not shown) | 5.05% |
| CCOc1cc(C2C3=C(O)CC(C)(C)CC3=NC(C)=C2C(=O)N2CCCCC2)ccc1O (stereo not shown) | 1.86% |
| CCC(C)N1C(=O)C(=O)N(C2CCCCC2)C1=O (stereo not shown) | -2.77% |
| Brc1ccc(NC(c2ccccc2)c2ccncc2)cc1 (stereo not shown) | 4.17% |
| Cc1cccc(CCNC(=O)c2ccc(C/N=c3\c(O)c(O)\c3=N/C3CCCC3)cc2)c1 | 1.63% |
| Cc1cc(C)c2c(N)c(C(=O)NCc3ccco3)sc2n1 | -5.38% |
| CC(NC(=O)c1ccc(Br)cc1)c1ccc2c(c1)OCCO2 (stereo not shown) | -1.51% |
| COc1cccc2sc(N(CCN(C)C)C(=O)c3ccc(C(=O)c4ccccc4)cc3)nc12 | 3.7% |
| COc1cccc(C2C(=O)N(C3CCC(C)CC3)CC(=O)N2CCC2=CCCCC2)c1OC (stereo not shown) | 7.37% |
| COC(=O)[C@@H]1C[C@@H](O)CN1Cc1ccsc1 | -1.2% |
| COc1ccc(CN2CCN(Cc3c[nH]c4ccccc34)CC2)c(OC)c1 | 1.64% |
| Cc1nn(C)c(C)c1CNC(=O)c1cc2nc(-c3cccs3)cc(C(F)(F)F)n2n1 | 6.65% |
